# The campaign covered roughly 410,000 compounds. About 5,000 (1.2%) were called active. Inconclusive means that the source gave no clear call. Such entries were picked first, then a sample of the others. Calls come from the whole dose curve; as a rule, active = well fitted inhibition curve with a large enough effect; inconclusive = small, poorly fitted or top-dose-only effect; inactive = no such curve, though single readings can be large or run the other way. A potency beside an inconclusive call is a rough fit, not a confirmed value.
# Assay: qHTS for Inhibitors of TGF-b; note: nearly all actives have a fitted effect of over 65% in size
# Settings: HepG2 CAGA-GFP TGF-b/SMAD3 reporter, GFP fluorescence, 18 h, TGF-beta stimulated, 500 pg/mL final; series mostly up to 46.1 µM; activity, negative = inhibition: at the top concentration
# In short: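 Using HEPG2 CAGA-GFP reporter cells at 1000 cells/well, we pinned test compounds, stimulated with recombinant TGF-beta (500 pg/mL final) and measured total well GFP after 18 h.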
# % is set by controls: 0 for no effect and ±100 for the full control effect; potency is the fitted concentration of half-maximal effect; tags give direction and shape of the fitted curve.
Compound,Potency,"activity, negative = inhibition"
Cn1c(SCC(=O)Nc2cc(Cl)cc(Cl)c2)nnc1-c1ccc2nonc2c1,"inconclusive: 12.6 µM [inhibitor, partial curve, poor fit]",
CC(=O)c1ccc(NC(=S)Nc2ccn(Cc3ccc(Br)cc3)n2)cc1,"inconclusive: 7.08 µM [inhibitor, partial curve, poor fit]",
C(=C\c1c[nH]c2ccccc12)/c1nccc2ccccc12,"inconclusive: 8.91 µM [inhibitor, partial curve, poor fit]",
c1ccc(-c2csc3ncnc(NCC4COc5ccccc5O4)c23)cc1 (stereo not drawn),active: 3.55 µM,
COc1ccc(-n2nc3c(N4CCCC(C(=O)NCc5cccc(F)c5)C4)nnc(C)c3c2C)cc1 (stereo not drawn),"inconclusive: 6.31 µM [inhibitor, full curve]",
CC(C)Nc1oc(-c2cccc3ccccc23)nc1C#N,"inconclusive: 17.8 µM [inhibitor, single point]",
COc1cc2ncc(C(=O)c3ccccc3)c(N3CCN(Cc4ccccc4)CC3)c2cc1OC,"inconclusive: 35.5 µM [inhibitor, single point]",
CC(=O)Nc1ccc(/C(C)=N/NS(=O)(=O)c2ccccc2)cc1,,inactive: 1.31%
Cc1ccc(Sc2ccc(NC(=O)CCl)cc2)cc1C,"inconclusive: 22.4 µM [inhibitor, single point]",
Cc1c(C#N)c(NC(=O)CCl)n(Cc2ccccc2)c1C,"inconclusive: 5.01 µM [inhibitor, partial curve]",
CN(Cc1ccccc1)C(=O)C1(C)CCN1C(=O)Cc1ccc(Cl)cc1Cl (stereo not drawn),"inconclusive: 14.1 µM [inhibitor, single point]",
Cc1oc(-c2cc(Cl)cc(Cl)c2)cc1C(=O)NCCc1ccccc1,"inconclusive: 35.5 µM [inhibitor, single point]",
COc1ccc(Cc2c(-c3ccco3)nc3c(C)cc(Br)cn23)c(C)c1,"inconclusive: 35.5 µM [inhibitor, single point]",
O=C(CSc1nnc2n1CCCN2C(=S)Nc1ccc(Cl)cc1)c1ccccc1,"inconclusive: 14.1 µM [inhibitor, partial curve, poor fit]",
CCN1CCN(c2ccc(NC(=O)c3ccc([N+](=O)[O-])o3)cc2Cl)CC1,"inconclusive: 17.8 µM [inhibitor, partial curve, poor fit]",
NNc1nc(-c2ccccc2)cc(-c2ccc(Br)cc2)n1,"inconclusive: 11.2 µM [inhibitor, partial curve]",
O=C1C(NS(=O)(=O)c2ccccc2)=C(N2CCN(c3ccc(F)cc3)CC2)C(=O)c2ccccc21,"inconclusive: 31.6 µM [inhibitor, single point]",
CCOC(=O)CSc1nnc(CNc2ccc(Cl)cc2)n1-c1ccccc1,"inconclusive: 11.2 µM [inhibitor, partial curve, poor fit]",
CC1CCC(N2CCN(S(C)(=O)=O)CC2)CC1 (stereo not drawn),"inconclusive: 3.98 µM [inhibitor, partial curve, poor fit]",
C[C@@H]1CN([C@@H](C)CO)C(=O)c2cc(N(C)C)ccc2O[C@@H](C)CCCCO[C@@H]1CN(C)Cc1ccc2c(c1)OCO2,,inactive: 2.54%
NC(=O)CC[C@H](NC(=O)OCc1ccccc1)C(=O)OCc1ccc(Cl)cc1,"inconclusive: 11.2 µM [inhibitor, partial curve]",

Compound,Potency,"activity, negative = inhibition"
Cc1ccc(C(=O)C(C)OC(=O)C2CCN(c3ccc(C(F)(F)F)cn3)CC2)cc1 (stereo not drawn),,inactive: -3.54%
CC(C)(C)C(=O)NCCc1nc2ccccc2n1CCCCOc1ccc(Cl)cc1,"inconclusive: 20 µM [inhibitor, single point]",
NC(CCc1ccccc1)c1csc(NC(=O)NCCc2ccccc2)n1 (stereo not drawn),"inconclusive: 14.1 µM [inhibitor, single point]",
Cc1ccc(Cn2c(C(=O)O)c(CNC3CCCCCC3)c3ccc(C)cc32)cc1,"inconclusive: 3.16 µM [inhibitor, single point]",
CCc1ccccc1OC[C@@H](O)CN[C@H]1CCCc2ccccc21,"inconclusive: 35.5 µM [inhibitor, single point]",
Cc1sc2ccccc2[n+]1CCC[n+]1c(C)sc2ccccc21,active: 11.2 µM,
COc1ccc(-c2nc(-c3ccccc3)c(-c3cc([N+](=O)[O-])ccc3C)[nH]2)cc1O,"inconclusive: 0.355 µM [inhibitor, full curve, poor fit]",
Cc1nn(-c2ccc(Cl)cn2)c2c1C(=O)CC(C)(C)C2Br (stereo not drawn),"inconclusive: 22.4 µM [inhibitor, single point]",
CCN(c1ccccc1)S(=O)(=O)c1cccc(C(=O)NCCOc2ccccc2OC)c1,"inconclusive: 8.91 µM [inhibitor, partial curve, poor fit]",
COc1ccc(CSc2nnc(NC(C)=O)s2)cc1[N+](=O)[O-],,inactive: 1.18%
COc1ccc(OCCNc2cc(N3CCCCC3)ccc2[N+](=O)[O-])cc1,,inactive: 6.32%
O=C(Nc1c(-c2ccc(Cl)cc2)[nH][nH]c1=O)c1ccccn1,,inactive: -6.4%
CN(C)/C=C1\C(=O)N(c2ccc([N+](=O)[O-])cc2)N=C1c1ccccc1,"inconclusive: 17.8 µM [inhibitor, partial curve, poor fit]",
CCNCc1nc2cc(Cl)ccc2c(=O)[nH]1,,inactive: 0.735%
Cc1cccc2sc(NC(=O)CN(C)S(=O)(=O)c3ccc(Br)s3)nc12,"inconclusive: 35.5 µM [inhibitor, single point]",
COC(=O)Cc1[nH]n(-c2nc3ccccc3s2)c(=O)c1C(C)=Nc1ccc(OC)cc1,"inconclusive: 35.5 µM [inhibitor, single point]",
CCOc1cccc(CNc2ccc(O)cc2)c1OCc1ccc(Cl)cc1Cl,"inconclusive: 35.5 µM [inhibitor, single point]",
CC(C)(C)c1cc(NC(=O)Nc2ccc(Cl)cc2Cl)no1,"inconclusive: 7.08 µM [inhibitor, full curve]",
Cc1ccc(OCC(=O)N(c2ccccn2)C2CCCCC2)c(C)c1,"inconclusive: 15.8 µM [inhibitor, single point]",
O=C(C1=NN[C@@H]2C(=O)N(c3cccc(C(F)(F)F)c3)C(=O)[C@H]12)c1ccc2ccccc2n1,"inconclusive: 35.5 µM [inhibitor, partial curve, poor fit]",
COc1ccc(NC(=O)Cn2nnc(-c3ccccc3NS(=O)(=O)c3ccccc3)n2)cc1,"inconclusive: 15.8 µM [inhibitor, single point]",

Compound,Potency,"activity, negative = inhibition"
O=C(Nc1nccs1)C1CC=CC2CCN(Cc3ccc(Cl)c(Cl)c3)C(=O)C21 (stereo not drawn),,inactive: -10.3%
COC1=CC(=O)C(OC)=C(OC)C1=O,"inconclusive: 35.5 µM [inhibitor, single point]",
CCOC(=O)Nc1ccc2c(c1)N(C(=O)CCN(C)C)c1ccccc1CC2,"inconclusive: 11.2 µM [inhibitor, partial curve, poor fit]",
O=C1OCCN1C(=O)[C@H]1[C@H](c2ccccc2)C(c2cccc(Cl)c2)=NN1c1ccccc1,"inconclusive: 17.8 µM [inhibitor, partial curve, poor fit]",
CCOc1ccc(CNC(=O)CSc2nnc(C)c3c(C)n(-c4ccccc4)nc23)cc1,"inconclusive: 14.1 µM [inhibitor, partial curve, poor fit]",
CCc1ccccc1N1C(=O)N(Cc2ccccc2C)c2ccccc2S1(=O)=O,,inactive: 0%
COc1cc(CN2c3ccccc3C(=O)CS2(=O)=O)cc(OC)c1,"inconclusive: 2 µM [inhibitor, full curve]",
COCCn1c(COc2cccc(OC)c2)nnc1SCC(=O)NC1CCCCC1,,inactive: -0.131%
CC(C)n1c(=N)c(C(=O)NCCc2ccccc2)cc2c(=O)n3ccccc3nc21,,inactive: -8.78%
CC(=O)Nc1ccc(Nc2cc(C)nc3c(-c4ccc(Cl)cc4)cnn23)cc1,,inactive: -28.5%
Cc1ccc(NC(=O)CCCOc2ccccc2)cc1S(=O)(=O)N1CCOCC1,,inactive: -6.99%
CC(C)n1c(CN(C)c2ccccc2)nc2ccccc21,"inconclusive: 35.5 µM [inhibitor, single point]",
Cc1c(C(N)=O)c(N)c(C(=O)c2ccccc2)n1-c1ccccc1,"inconclusive: 11.2 µM [inhibitor, partial curve, poor fit]",
CC(NC(=O)CN(C)CC(=O)Nc1ccc(Cl)cc1)c1ccc(F)cc1 (stereo not drawn),"inconclusive: 35.5 µM [inhibitor, single point]",
Cc1ccc(S(=O)(=O)Nc2cccc(-c3cn4cccc(C)c4n3)c2)cc1,"inconclusive: 14.1 µM [inhibitor, single point]",
C=C[C@@H]1c2c(F)cccc2N(S(=O)(=O)c2ccc(C)cc2)[C@H](c2ccc(OC(C)=O)cc2)C1(C#N)C#N,"inconclusive: 35.5 µM [inhibitor, single point]",
N#CC1=C(N)N=C(SCc2cccc3ccccc23)C(C(N)=O)C12CCCCC2 (stereo not drawn),"inconclusive: 35.5 µM [inhibitor, single point]",
O=C1c2ccccc2-c2cc(Br)ccc2NC1O (stereo not drawn),,inactive: -1.75%
COC(=O)CS(=O)(=O)c1nnc([C@H](Cc2ccccc2)NC(=O)OC(C)(C)C)o1,"inconclusive: 35.5 µM [inhibitor, single point]",
Cc1ccccc1-n1c(=O)c2ccccc2n(CC(=O)NCc2ccco2)c1=O,"inconclusive: 6.31 µM [inhibitor, single point]",
CCOC(=O)N1C(=O)[C@@](CC)(c2ccccc2)N1C(=O)OCC,"inconclusive: 22.4 µM [inhibitor, partial curve, poor fit]",

# Reference: PubChem BioAssay AID588855 (National Center for Advancing Translational Sciences (NCATS), 2011)
